Measured values as given in the supplement of paper PMC3334620.
Whole data set: some 33,000 sequences, median “E-score (-0.5 to 0.5)” near -0.021, cut for the highest 2% near 0.32. The list shows a part of the results.

Each sequence was assayed against T1, Zap1 (UniProt P47043) (assay: PBM E-score (8-mer binding enrichment) (E-score (-0.5 to 0.5)); higher = stronger / more preferred TF binding; most listed sequences are background and not binding sites). Conditions: protein concentration: 200 nM; construct: GST-full length.
T1 sequence: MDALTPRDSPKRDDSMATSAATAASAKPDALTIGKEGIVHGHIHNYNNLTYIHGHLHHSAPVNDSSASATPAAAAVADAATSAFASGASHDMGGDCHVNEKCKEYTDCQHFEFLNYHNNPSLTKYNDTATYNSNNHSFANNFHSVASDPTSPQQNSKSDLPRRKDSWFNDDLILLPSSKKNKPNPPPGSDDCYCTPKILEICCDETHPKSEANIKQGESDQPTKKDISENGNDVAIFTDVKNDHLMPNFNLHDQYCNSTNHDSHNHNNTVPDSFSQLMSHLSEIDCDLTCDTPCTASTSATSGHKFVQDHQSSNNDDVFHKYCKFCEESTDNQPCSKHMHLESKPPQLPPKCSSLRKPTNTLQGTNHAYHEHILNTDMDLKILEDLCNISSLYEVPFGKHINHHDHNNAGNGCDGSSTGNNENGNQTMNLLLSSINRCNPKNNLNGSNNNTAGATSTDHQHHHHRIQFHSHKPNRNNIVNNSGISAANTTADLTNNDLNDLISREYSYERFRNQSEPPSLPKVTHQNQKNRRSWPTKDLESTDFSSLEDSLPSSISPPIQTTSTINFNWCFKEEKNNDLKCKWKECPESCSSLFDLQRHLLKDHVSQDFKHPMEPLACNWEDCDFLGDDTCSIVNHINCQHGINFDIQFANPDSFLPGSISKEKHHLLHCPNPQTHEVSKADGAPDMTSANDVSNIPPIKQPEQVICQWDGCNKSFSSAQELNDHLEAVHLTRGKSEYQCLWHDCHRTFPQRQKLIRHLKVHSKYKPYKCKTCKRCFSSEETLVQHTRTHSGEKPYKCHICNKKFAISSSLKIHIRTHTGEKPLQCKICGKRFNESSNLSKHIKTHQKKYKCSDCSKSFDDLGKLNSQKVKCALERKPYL
Outline: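 Full-length yeast transcription factors or their DNA-binding domains, GST-tagged and expressed with PURExpress, were applied at about 100-200 nM to universal all-10-mer Agilent arrays. These arrays had been made double-stranded by primer extension on fresh or once-stripped slides. Detection used fluorescent anti-GST, normalisation used masliner, and E-scores for ungapped eight-base words pooled with reverse complements came from the Universal PBM Analysis Suite.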
With GGATACCA the “PBM E-score” value was 0.17. With GAGAGTAC the “PBM E-score” value was -0.0748. GATACCGA was tested, and the “PBM E-score” value was -0.0307. With AGGGAGTC the “PBM E-score” value was -0.23. For AAGGTCGT, the “PBM E-score” value was 0.334. With AAAGCCTC the “PBM E-score” value was -0.19. ATAAATCA was tested, and the “PBM E-score” value was 0.106. AGTGGAGC was tested, and the “PBM E-score” value was -0.353. For CCGGTGAA, the “PBM E-score” value was 0.0664. With TATGCCAA the “PBM E-score” value was 0.102. For AGGTGGCA, the “PBM E-score” value was 0.00608. For CGGAGCTA, the “PBM E-score” value was -0.191. For CTACGGAA, the “PBM E-score” value was -0.124. In the case of AACTTGAC, the “PBM E-score” value is reported as 0.124. In the case of GCGCCGAC, the “PBM E-score” value is reported as -0.282. For GCATTAGA, the “PBM E-score” value was 0.0441. With CCCTGCAC the “PBM E-score” value was 0.0155. GCTCCAAA was tested, and the “PBM E-score” value was -0.0722. ATTAATAA was tested, and the “PBM E-score” value was 0.21. With ATCTCCGG the “PBM E-score” value was 0.0468. AACGAGCA was tested, and the “PBM E-score” value was -0.0771. With ATCCTATG the “PBM E-score” value was -0.141. For ATTTAAGG, the “PBM E-score” value was 0.069. In the case of TGAGGGAA, the “PBM E-score” value is reported as -0.169. For AATCATGG, the “PBM E-score” value was 0.0519. For AGCAGGCC, the “PBM E-score” value was -0.143. In the case of AATAGTCA, the “PBM E-score” value is reported as -0.0427. For AACGTCTC, the “PBM E-score” value was -0.207. In the case of CTACGCTA, the “PBM E-score” value is reported as -0.192. With GGAGGATA the “PBM E-score” value was -0.248. In the case of ATTTCTGG, the “PBM E-score” value is reported as 0.0521. With ATCTCGAA the “PBM E-score” value was 0.0457. For CTGTGAGC, the “PBM E-score” value was -0.1. In the case of TACACGTA, the “PBM E-score” value is reported as -0.0778. AATGAGGT was tested, and the “PBM E-score” value was 0.235. With CGTCATCA the “PBM E-score” value was -0.116. CCCTACAC was tested, and the “PBM E-score” value was 0.0286. For ATAATAGC, the “PBM E-score” value was -0.189. CAACGCAC was tested, and the “PBM E-score” value was -0.0359. In the case of CTAGTCTC, the “PBM E-score” value is reported as -0.151. In the case of AATTAATG, the “PBM E-score” value is reported as 0.0953. For CATGACTA, the “PBM E-score” value was -0.209. ACCTATCC was tested, and the “PBM E-score” value was 0.152. In the case of ACTTGTGG, the “PBM E-score” value is reported as 0.154. For CACTTAGC, the “PBM E-score” value was -0.169. AAATTTTC was tested, and the “PBM E-score” value was 0.0442. With CCTGTTCA the “PBM E-score” value was -0.104. For AAGGATCG, the “PBM E-score” value was -0.0555. In the case of CCCACAAG, the “PBM E-score” value is reported as 0.231. For CAAGGAGC, the “PBM E-score” value was -0.24. For AAATGACA, the “PBM E-score” value was -0.08. ATTCCTGA was tested, and the “PBM E-score” value was -0.13. In the case of CGCGGAGA, the “PBM E-score” value is reported as -0.0473. In the case of CTGCTACA, the “PBM E-score” value is reported as -0.134. With CCGTGTCA the “PBM E-score” value was -0.114. With TCGACTAA the “PBM E-score” value was -0.0044. With CCCTGGGC the “PBM E-score” value was 0.0761. In the case of CAAACTTC, the “PBM E-score” value is reported as 0.0004. In the case of AGGTACTA, the “PBM E-score” value is reported as 0.29. In the case of CCCCCCCC, the “PBM E-score” value is reported as -0.412. For CCGGGGCC, the “PBM E-score” value was 0.109. TCGAGACA was tested, and the “PBM E-score” value was -0.031. AAAACAGC was tested, and the “PBM E-score” value was 0.0542. In the case of CACCCCCC, the “PBM E-score” value is reported as -0.327. In the case of CCCCGGTA, the “PBM E-score” value is reported as 0.153. For ACGGAGTC, the “PBM E-score” value was -0.138. ATATCCGA was tested, and the “PBM E-score” value was 0.0812. In the case of AGTATCCG, the “PBM E-score” value is reported as -0.013. For AACCCTAG, the “PBM E-score” value was 0.408. TGTCGCAA was tested, and the “PBM E-score” value was 0.0209. GTCCGATA was tested, and the “PBM E-score” value was -0.0741. CACGGACC was tested, and the “PBM E-score” value was 0.0552. In the case of CCGTAGTC, the “PBM E-score” value is reported as -0.127. In the case of GAGCTGGC, the “PBM E-score” value is reported as -0.332. In the case of GAATGAGC, the “PBM E-score” value is reported as -0.245. With GAGGACGC the “PBM E-score” value was -0.14. In the case of AAACCTCA, the “PBM E-score” value is reported as 0.232. AAACGACC was tested, and the “PBM E-score” value was 0.279. ATTGTGGC was tested, and the “PBM E-score” value was 0.0557. CGTCCAGC was tested, and the “PBM E-score” value was -0.203. With GCATGAGC the “PBM E-score” value was -0.216. With ACACAGGA the “PBM E-score” value was -0.0851. AAGGCACA was tested, and the “PBM E-score” value was 0.0928. In the case of ACGTCAAG, the “PBM E-score” value is reported as -0.0142. For GGTCATAA, the “PBM E-score” value was 0.379. With CCTCCCCC the “PBM E-score” value was -0.293. For AGTGCCCC, the “PBM E-score” value was -0.156. CATCGAGG was tested, and the “PBM E-score” value was 0.00089. For GTGCTCAA, the “PBM E-score” value was 0.0499. ACCCACTA was tested, and the “PBM E-score” value was 0.213. With ACGTGAAA the “PBM E-score” value was 0.194. ATCATGAT was tested, and the “PBM E-score” value was 0.219. In the case of CGCCATTC, the “PBM E-score” value is reported as -0.0351. TAGGGTAA was tested, and the “PBM E-score” value was 0.396.
